Laboratory results: PMC10668032
The other results are listed elsewhere or left out. At the low end of the ranking the order means little.

molecular target: SIX1 homeodomain (reference allele) (UniProt Q15475); experiment: universal protein binding microarray; conditions: Universal all-10-mer PBM (8x60K, AMADID 030236), 300 nM GST-tagged protein, Alexa Fluor 488 anti-GST; buffer, salt, pH and temperature not stated; high values mean tight binding; most listed sequences are background and not binding sites; double strand, one strand shown

Sequence	binding signal [E-score]
CCTGATGC	-0.0302
GCCCAAAA	-0.139
AACAAGTG	-0.196
AAAGTATC	0.413
TAACCTTA	-0.0776
GGGGGTTA	0.0849
ATCAGTTA	0.182
ACGATGCA	-0.0233
AAGTATGA	0.0829
CCCATGAC	-0.128
CGAAACAA	0.0174
AACGTGCG	-0.276
CATTAGAA	-0.158
CGGTAACG	-0.101
TGACGGAA	-0.306
GGTGACAC	0.346
AGACCTGC	-0.148
TCTCCTAA	0.0629
GACCACAA	-0.0821
CTCATGGC	0.078
AATCGGTC	-0.126
ATCGGGCA	0.195
AGCGCTGA	-0.138
GAATTCCC	-0.222
GGTGGGTA	0.101

Sequence	binding signal [E-score]
ACAATAAC	-0.0887
AGTAGGCA	0.0392
AAACCCAC	0.0669
AACACTTA	-0.295
GCCCGCAC	-0.227
GAATTCAC	-0.231
GGAATAGA	0.0724
AGAAGAGA	0.059
CACACATG	-0.123
CAATGATA	0.418
AGAAAATC	-0.127
GCGTTTCC	-0.176
CGAAGATC	0.202
GTGTTCGA	0.0775
ACGGAGCC	-0.222
CAGGCACC	-0.0139
CAACACAA	-0.137
AACCCTCC	-0.206
TACGCTGA	0.224
AGGCCTTA	-0.199
AGTCATAA	-0.185
GTAGCAAC	-0.187
ATTCCGGA	0.106
CAGGCAAG	-0.0906
CATAGGGC	-0.149

Sequence	binding signal [E-score]
ATATGGTA	0.256
TCACCACA	-0.0476
CAAGCGAG	0.02
CACAACGC	-0.113
CAGAGTCA	-0.142
AGTGTGGG	-0.0742
CTGAGAAG	0.0736
ACAGGTAA	-0.11
CGCCGAGA	0.0577
CAATAGCC	-0.0899
CGACTTCC	-0.316
AGGATCAA	0.352
AATAAACG	-0.119
AAGATCAG	0.195
CGAGCCCC	0.172
AGTTATCG	0.19
CGCACCGC	-0.0543
GTGTTAAC	-0.0456
AAATGTGA	-0.112
AGCGTATA	0.233
AATGGTAC	-0.184
GGAAACTA	-0.0597
GGCGTACA	-0.0813
CCCAAGCA	0.263
AGAACCCA	-0.106

Sequence	binding signal [E-score]
ACCGGCTG	0.00468
GCTCCGTA	0.008
TATTGGAA	-0.118
AAGAACCG	-0.0662
GCTTTGAC	-0.253
AGGCTTTG	-0.245
CACCGAGA	0.0619
ACGTTCGG	-0.148
ACGGTACG	0.144
CGCCTGAA	0.019
CAAAAAGG	-0.169
AAAGGAAC	-0.136
AATGATAG	0.309
ACCGCTAT	0.216
ACTCAGAT	0.226
GCGAAGAA	-0.287
CAATAGGG	0.148
ATAAGCCG	-0.0735
AACCGTAT	0.275
TAGTAGGA	0.0585
AAAGAGGG	-0.0959
CCGAAACC	0.185
ATGACTTC	-0.0987
ACTGTTCA	-0.261
ATGCGGTG	0.0513

Sequence	binding signal [E-score]
CAGGCATG	-0.198
AGTTTCGA	0.0297
CCGTACTA	0.0475
ATCATCCC	0.325
CCAGATCA	0.39
AAACTGAG	-0.0841
ACCGCACA	0.0276
CATGCTAG	0.096
ACCGTCGT	-0.136
TAACCAGA	-0.0692
CTCCCGAC	0.00862
ACACGGCT	0.2
CTGCGACC	-0.211
CGCCGGTA	-0.0517
AGGTCGTA	0.0282
CCTGGGTC	0.0702
CACAGCTA	-0.0358
ATTAGAGG	0.0169
AACCACCA	-0.0199
ATCCTCTC	0.264
GCCAATGA	-0.0233
AACCATAT	0.303
CAGAATCC	-0.0189
GAATTCGC	-0.0658
ACCCTTCA	0.0406

Sequence	binding signal [E-score]
AATGTTGG	-0.197
CCTCTTCG	0.0534
TTCGCGAA	-0.0959
TCTTCTCA	0.147
ACTGCTTA	-0.22
ACTGTTAG	-0.207
ACAGCATA	0.0833
ACAGATCT	0.11
CATACCCC	0.258
CCTGTAAC	-0.104
ACGTGCAA	-0.24
CCCATAGA	-0.108
GATACGTA	0.429
AACCGTAC	-0.00198
CCATTAGA	0.00933
AAGAAGTG	-0.103
CCCCCGAG	-0.0968
CAAGAGTC	-0.233
ATTGAGCG	0.0633
CGCCGATA	0.376
CACTTATC	0.152
CTATAAAA	-0.0451
CGCTTTAG	0.0361
ACTACCAT	-0.0233
GGCTGATA	0.422

Sequence	binding signal [E-score]
ACATGGAA	-0.144
ATCTAGTG	0.145
ATGTACTC	0.0282
AGAGCTCG	-0.0892
GATTGCCC	-0.156
AGCGGTTA	-0.233
CGGTGAAG	0.0317
ACTTTGCG	-0.0368
GAAAGCCC	-0.0185
CCTGGCCC	-0.248
CACTTCAG	-0.0713
GAGCAGGA	0.00201
CCTGTCTC	0.123
AAAATTCC	-0.264
GATAAGCC	0.0917
CCTAACCA	-0.119
AGGTGAAC	-0.06
ATATTCAA	0.155
GCCTAGTA	0.00981
AGGTCGCA	-0.127
AGCTGCAA	-0.225
GACGTCAC	-0.127
GGTGTACA	0.306
GATGAGGC	-0.1
ACATGAGG	-0.137

Sequence	binding signal [E-score]
CCGTTTAA	-0.00389
CCGCCCGG	0.0433
AAGATACA	0.265
CCAAGCAA	-0.0962
GGAGCACC	0.0657
CAGTCTTA	-0.145
AGCAGTGA	0.0242
CATTTTGA	0.0474
AGCGTCCT	-0.244
CTTATGGA	-0.201
ACGACATA	0.084
GTATACGA	0.308
CAGTTTAA	-0.0808
GGTGCTGA	-0.00048
AGGTGGAC	-0.123
AAAGTTTA	-0.167
AATTTTAG	-0.249
GCTTTAAC	-0.149
ATTAGCGA	7e-05
AAGCAACA	-0.186
ATTCTCAA	0.0887
AGACAGGA	-0.00485
ACACATAG	-0.065
ATCAATGG	0.162
ACAAAGGA	-0.00839

Sequence	binding signal [E-score]
CCTCAAAC	-0.127
CGGCCACC	-0.231
GGTTCTCA	0.237
TGTCAAAA	-0.0702
GCTTGCCC	-0.214
AGGTGGGG	0.00643
ACACCGGG	0.301
CTGACTTA	-0.197
CTCAAGCC	-0.0792
AGAAGAAA	-0.209
CTGTGCAA	-0.109
ACCATAAG	-0.0256
AGTTTCGG	-0.247
CGTGAGAC	0.252
AATAAATG	-0.294
ACTGTCGG	-0.182
AGATGCTC	-0.0346
CCGTTGAG	-0.115
AGCTGGGC	-0.159
CTAGGCCA	-0.285
CAATCCTC	0.0493
GGAGGTCA	-0.136
TCAGTTCA	-0.0765
CCACGTGG	0.024
ATTATACC	0.389

Sequence	binding signal [E-score]
AATAACAC	0.151
AGGACTAC	-0.188
CAAAATCA	-0.247
ATTACGGA	0.0351
GAAACATA	0.0439
CTAAATCC	0.0532
CCATTACC	-0.158
ATTAGCCG	0.226
GAGGCTCA	-0.0463
ATGCGCTC	-0.0418
ATAGTCGG	-0.0304
CCACCTAG	-0.0558
ATATCGTC	0.382
GTCGATTA	-0.033
CTTCCGGA	-0.0895
CACAGCCG	0.103
CAAGTTTA	-0.177
CGAGTAAA	-0.154
AAACCCTT	-0.0427
CGGTGCCA	-0.0515
CATCAGTC	-0.124
TCTCAAGA	-0.0536
AACTCTAC	-0.27
CAGTGACC	-0.0547
ACATTACC	-0.26

Sequence	binding signal [E-score]
GTTAAAGA	-0.113
CATCCCAA	-0.00605
CGTAACAA	-0.23
CGAATTAG	-0.114
ACGTACTG	-0.205
AGGTATGA	0.242
AACTTTCG	-0.264
AAGAACAG	-0.131
ACCGAGCA	-0.0311
GGAGGACA	0.055
ATAGAGGG	0.0444
AGTACCAG	-0.0198
TCTTCGAA	-0.0708
AAGTGTAG	-0.0746
GACTCCGA	-0.039
ATATTCGA	0.0818
GTCCACAC	0.00998
AGGAGAAA	-0.319
CTGTTAAA	-0.219
GAGCGAGC	-0.146
CTGTTTTA	-0.0989
GTTAGGCA	-0.297
CACAGAGC	-0.341
CGCACTAC	0.000925
GACAATAC	0.16

Sequence	binding signal [E-score]
ATCATCTA	0.304
GGGCCGCA	-0.169
GACGCCGC	-0.116
CATTACCG	-0.137
TATACTCA	0.192
ATTCTTTC	-0.178
CCTACTCC	-0.0716
GACGGTCC	-0.24
GCCGAGGC	-0.0166
AATCCCTG	0.082
GCGGCACC	-0.134
ATAAAAGC	-0.214
AGCGCTAA	-0.0845
GACTGTGC	-0.21
ATGGTGGC	-0.138
GTACACAC	0.111
GTCGAGTA	0.0231
AGGCGTGG	-0.101
TAGGCTAA	0.0328
CGGATCGA	0.34
GGATTCCC	0.0403
AGGGTACA	-0.034
AGCGGATC	0.375
CATCATGA	0.0921
GGCCGCCC	-0.15

Sequence	binding signal [E-score]
ATGATAAA	0.00022
TATTGCGA	0.232
ACTACTCG	0.163
GTTCCGGA	0.0111
GTTCGGAA	-0.262
AGTTTACC	-0.189
GGACATGA	-0.0202
GATTGGGA	-0.0578
TACTGTGA	0.101
ATGGCGCA	-0.0966
ATTTTGTA	-0.231
CAGGTTCA	-0.0522
CAGATCGC	0.284
AAAGGACT	-0.24
TGCCGGCA	-0.289
ACAATGTA	-0.0341
CACTTACC	0.0711
CCTAGACG	0.13
CTCAGCCA	-0.103
ACAATCGT	-0.187
CTGCCATC	-0.0173
CGACGTCA	-0.147
GGAGAAAC	-0.0418
GTAGACAA	-0.0411
GGACACGA	0.176

Sequence	binding signal [E-score]
CGGCTGAC	0.114
CGCATTCC	-0.18
CACGTATA	0.304
AGTAAGTA	0.0416
CCAGCCCA	-0.204
ACGCACTA	-0.107
AGCACCGG	-0.0286
CTGATATA	0.358
AAGTCCAA	-0.275
ATCGGAGG	0.145
CAAGGTCG	-0.147
CTTGATGC	-0.0118
ATGTCGGA	0.0566
CGCTATAC	0.254
AAATGGTC	-0.207
CACCCCTG	0.156
CACGGCGC	-0.129
AATTTCTA	-0.245
CAAACGAG	0.0049
